Laboratory results as given in paper PMC10957897, “An evolutionary mechanism to assimilate new nutrient sensors into the mTORC1 pathway” (Nature Communications, 2024).
These are yes or no findings as the source states them, for the method shown. In cells and extracts the contact can be indirect. Some binding calls cover weakened binding; strength is not graded here. For part of these data: Tags and fused reporters may be left off the sequences shown.

Sequences of proteins named here, by UniProt entry; tags and fusion partners are left off. A change or cut given only in a name is not applied to a line headed by its entry.
UniProt Q9VKK2: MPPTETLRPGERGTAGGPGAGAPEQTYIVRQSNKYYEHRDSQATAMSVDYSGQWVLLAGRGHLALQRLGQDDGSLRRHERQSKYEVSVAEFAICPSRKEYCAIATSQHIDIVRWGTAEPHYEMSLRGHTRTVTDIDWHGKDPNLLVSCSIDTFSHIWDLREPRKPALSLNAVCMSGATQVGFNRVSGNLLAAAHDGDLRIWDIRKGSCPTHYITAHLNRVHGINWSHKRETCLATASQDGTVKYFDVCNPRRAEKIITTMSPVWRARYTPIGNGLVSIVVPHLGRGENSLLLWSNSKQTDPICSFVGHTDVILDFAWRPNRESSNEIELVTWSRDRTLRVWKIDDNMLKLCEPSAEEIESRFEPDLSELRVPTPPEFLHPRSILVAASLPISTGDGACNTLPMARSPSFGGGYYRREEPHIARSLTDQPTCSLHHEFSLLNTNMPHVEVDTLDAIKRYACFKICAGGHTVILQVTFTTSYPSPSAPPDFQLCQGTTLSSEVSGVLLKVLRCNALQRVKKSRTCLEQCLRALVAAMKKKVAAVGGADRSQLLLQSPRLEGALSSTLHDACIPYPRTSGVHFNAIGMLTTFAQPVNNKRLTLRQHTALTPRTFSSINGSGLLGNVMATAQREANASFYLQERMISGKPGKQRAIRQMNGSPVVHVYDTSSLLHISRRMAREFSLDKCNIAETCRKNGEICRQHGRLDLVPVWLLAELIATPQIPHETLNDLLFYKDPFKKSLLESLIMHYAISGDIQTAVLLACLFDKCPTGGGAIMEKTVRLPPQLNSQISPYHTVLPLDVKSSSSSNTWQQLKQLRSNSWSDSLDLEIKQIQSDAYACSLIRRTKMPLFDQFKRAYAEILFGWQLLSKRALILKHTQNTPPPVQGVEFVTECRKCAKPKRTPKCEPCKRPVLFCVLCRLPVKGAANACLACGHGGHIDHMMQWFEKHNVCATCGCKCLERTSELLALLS
UniProt Q9XZ25: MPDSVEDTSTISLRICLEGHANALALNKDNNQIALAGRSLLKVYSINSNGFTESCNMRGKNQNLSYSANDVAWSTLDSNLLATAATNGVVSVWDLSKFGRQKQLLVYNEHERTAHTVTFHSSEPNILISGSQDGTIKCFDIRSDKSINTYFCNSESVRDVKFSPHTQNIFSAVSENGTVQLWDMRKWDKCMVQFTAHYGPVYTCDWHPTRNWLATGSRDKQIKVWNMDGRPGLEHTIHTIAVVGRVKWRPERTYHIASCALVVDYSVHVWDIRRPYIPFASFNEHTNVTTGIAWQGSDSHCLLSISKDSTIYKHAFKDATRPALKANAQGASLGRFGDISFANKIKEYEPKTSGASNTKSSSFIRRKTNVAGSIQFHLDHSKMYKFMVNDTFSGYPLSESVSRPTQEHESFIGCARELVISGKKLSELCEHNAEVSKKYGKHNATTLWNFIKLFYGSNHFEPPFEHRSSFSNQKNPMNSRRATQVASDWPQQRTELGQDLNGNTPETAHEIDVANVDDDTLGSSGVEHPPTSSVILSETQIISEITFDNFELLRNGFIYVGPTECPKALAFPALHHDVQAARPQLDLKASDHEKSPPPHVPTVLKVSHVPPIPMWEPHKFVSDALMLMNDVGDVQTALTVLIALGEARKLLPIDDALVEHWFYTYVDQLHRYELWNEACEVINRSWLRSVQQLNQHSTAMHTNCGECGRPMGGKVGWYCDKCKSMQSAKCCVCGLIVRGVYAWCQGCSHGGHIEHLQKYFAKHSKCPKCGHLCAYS
UniProt Q9VQ89: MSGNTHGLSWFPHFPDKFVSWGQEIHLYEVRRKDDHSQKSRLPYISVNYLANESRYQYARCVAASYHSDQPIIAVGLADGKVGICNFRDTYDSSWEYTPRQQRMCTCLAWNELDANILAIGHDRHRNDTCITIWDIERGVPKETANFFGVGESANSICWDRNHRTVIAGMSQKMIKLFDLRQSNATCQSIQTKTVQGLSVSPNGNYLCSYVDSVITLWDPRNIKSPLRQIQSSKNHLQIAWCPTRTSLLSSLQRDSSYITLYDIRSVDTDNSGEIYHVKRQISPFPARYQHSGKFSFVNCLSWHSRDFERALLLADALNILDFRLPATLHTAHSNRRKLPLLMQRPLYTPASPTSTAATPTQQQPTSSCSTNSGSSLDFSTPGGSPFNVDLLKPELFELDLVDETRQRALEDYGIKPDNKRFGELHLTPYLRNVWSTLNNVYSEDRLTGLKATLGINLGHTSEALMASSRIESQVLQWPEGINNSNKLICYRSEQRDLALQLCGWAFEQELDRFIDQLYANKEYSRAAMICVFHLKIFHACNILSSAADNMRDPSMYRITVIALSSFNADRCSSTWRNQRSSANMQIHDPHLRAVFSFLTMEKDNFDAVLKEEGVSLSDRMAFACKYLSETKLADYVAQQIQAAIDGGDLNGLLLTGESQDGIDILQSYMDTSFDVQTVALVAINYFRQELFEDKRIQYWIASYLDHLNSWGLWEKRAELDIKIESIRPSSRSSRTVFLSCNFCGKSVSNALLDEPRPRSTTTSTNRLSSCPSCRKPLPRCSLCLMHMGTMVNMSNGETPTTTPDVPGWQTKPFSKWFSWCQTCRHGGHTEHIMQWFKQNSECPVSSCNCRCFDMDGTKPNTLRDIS
UniProt Q7K2X8: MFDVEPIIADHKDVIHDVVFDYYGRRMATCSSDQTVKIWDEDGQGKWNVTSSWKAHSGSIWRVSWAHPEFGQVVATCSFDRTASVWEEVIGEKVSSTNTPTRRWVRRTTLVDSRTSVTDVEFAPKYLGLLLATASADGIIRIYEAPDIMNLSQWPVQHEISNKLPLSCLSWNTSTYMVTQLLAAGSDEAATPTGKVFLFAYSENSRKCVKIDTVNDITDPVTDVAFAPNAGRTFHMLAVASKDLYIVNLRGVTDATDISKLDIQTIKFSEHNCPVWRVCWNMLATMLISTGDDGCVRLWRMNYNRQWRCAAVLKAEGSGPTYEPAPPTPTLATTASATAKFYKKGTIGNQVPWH
UniProt Q9V3J4: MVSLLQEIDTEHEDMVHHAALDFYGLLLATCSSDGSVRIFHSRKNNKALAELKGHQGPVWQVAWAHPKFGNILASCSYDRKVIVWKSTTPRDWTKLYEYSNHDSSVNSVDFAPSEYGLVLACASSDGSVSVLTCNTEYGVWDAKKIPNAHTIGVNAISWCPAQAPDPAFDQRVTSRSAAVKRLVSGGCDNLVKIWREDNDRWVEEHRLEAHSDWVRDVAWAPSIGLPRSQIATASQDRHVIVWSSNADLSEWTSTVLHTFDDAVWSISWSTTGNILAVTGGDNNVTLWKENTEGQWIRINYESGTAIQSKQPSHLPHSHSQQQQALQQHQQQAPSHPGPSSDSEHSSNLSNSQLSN

What was measured:
[1] = molecular target: T1, dGATOR2 complex, transiently expressed in HEK-293T cells (D. melanogaster) (UniProt Q9VKK2+Q9XZ25+Q9VQ89+Q7K2X8+Q9V3J4); assay: co-IP; in vitro dissociation: a mixture with 1 mM of each amino acid added directly to the FLAG immunoprecipitates from HEK-293T cells
[2] = molecular target: dWDR24-Mio-Nup44A subcomplex (D. melanogaster) (UniProt Q9XZ25+Q9VQ89+Q7K2X8); assay: co-IP; individual dGATOR2 subunits and subcomplexes tested for co-immunoprecipitation of Unmet (Supplementary Fig. 5a); details not shown
[3] = molecular target: T1, dGATOR2 complex, transiently expressed in HEK-293T cells (D. melanogaster); assay: co-IP; in vitro dissociation: sinefungin (SFG; 1 mM in Fig. 3d) added directly to the FLAG immunoprecipitates from HEK-293T cells, 30 min, 4 C, cytosolic buffer
[4] = molecular target: T1, dGATOR2 complex, transiently expressed in HEK-293T cells (D. melanogaster); assay: co-IP; anti-FLAG immunoprecipitates from HEK-293T cells transiently expressing FLAG-tagged GATOR2 and the sensor cDNAs; full RPMI or RPMI lacking leucine, methionine or amino acids; SAH or carnosine added to the immunoprecipitates had no effect
[5] = molecular target: T1, dGATOR2 complex, transiently expressed in HEK-293T cells (D. melanogaster); assay: condition: only with 1 mM SAM added to the immunoprecipitates; co-IP; in vitro dissociation: 1 mM SAM added directly to the FLAG immunoprecipitates from HEK-293T cells, 30 min, 4 C, cytosolic buffer (0.1% Triton, 40 mM HEPES pH 7.4, 10 mM NaCl, 150 mM KCl, 2.5 mM MgCl2)
[6] = molecular target: T1, dGATOR2 complex, transiently expressed in HEK-293T cells (D. melanogaster); assay: co-IP; in vitro dissociation: 1 mM SAM added directly to the FLAG immunoprecipitates from HEK-293T cells, 30 min, 4 C, cytosolic buffer (0.1% Triton, 40 mM HEPES pH 7.4, 10 mM NaCl, 150 mM KCl, 2.5 mM MgCl2)
[7] = molecular target: T1, dGATOR2 complex, transiently expressed in HEK-293T cells (D. melanogaster); assay: condition: only with a mixture containing 1 mM of each amino acid; co-IP; in vitro dissociation: a mixture with 1 mM of each amino acid added directly to the FLAG immunoprecipitates from HEK-293T cells

Row | Binder | binding [1] | binding [2] | binding [4] | binding [5] | binding [6] | binding [7] | binding [3]
1 | HA-Unmet, transiently expressed in HEK-293T cells (protein, UniProt Q9I7X6 1-456) MSSMDCATFPMHPKMDEQLARTFVINEEEEEKHIQKVQNAFLYYGPYACQRLKRSMDYLNSLSGEDQIMLAKYRGHLECVRTCIDRNQAVIREILRGRVLYPTDEATGDPSEFDEPPPNVRHGDMDQIDIPFDEADVEPLKILKAQSTLKLIARDWSTEGALEREQSYKPIIDSIVAYFKHSDFELKDIKILVPGAGLGRLTYELACLGYSCEGNEFSYFMLIASNFVLNLCDNENKYVLYPWVHQYVNNLRREDQVAPVRFPDVCPLKNPPKGHFEIAAGDFLEVYKTPNAYNCVATCFFIDCANNVIDFIRTIYKILVPGGIWVNLGPLLYHFSDVSGQNSIEPAFEDLCIIMESVGFVIEKSRTGIRTKYAQNPSSMKQSEYQSLFWVCRKPDLFEEQRGKRKASREPHDLIVREDSEEEGEQQPERNETEEKQQLKPLATANCETEIKEQPS | binds | binds | binds | no binding | – | – | no binding (condition: with sinefungin (SFG))
2 | Unmet G195D (protein, UniProt Q9I7X6 1-456) MSSMDCATFPMHPKMDEQLARTFVINEEEEEKHIQKVQNAFLYYGPYACQRLKRSMDYLNSLSGEDQIMLAKYRGHLECVRTCIDRNQAVIREILRGRVLYPTDEATGDPSEFDEPPPNVRHGDMDQIDIPFDEADVEPLKILKAQSTLKLIARDWSTEGALEREQSYKPIIDSIVAYFKHSDFELKDIKILVPDAGLGRLTYELACLGYSCEGNEFSYFMLIASNFVLNLCDNENKYVLYPWVHQYVNNLRREDQVAPVRFPDVCPLKNPPKGHFEIAAGDFLEVYKTPNAYNCVATCFFIDCANNVIDFIRTIYKILVPGGIWVNLGPLLYHFSDVSGQNSIEPAFEDLCIIMESVGFVIEKSRTGIRTKYAQNPSSMKQSEYQSLFWVCRKPDLFEEQRGKRKASREPHDLIVREDSEEEGEQQPERNETEEKQQLKPLATANCETEIKEQPS | – | – | binds | – | binds | – | binds

Further lines, with some results ahead:

Row | binding [1] | binding [2] | binding [4] | binding [5] | binding [6] | binding [7] | Binder | binding [3]
3 | – | – | no binding | – | – | – | Unmet E30A (protein, UniProt Q9I7X6 1-456) MSSMDCATFPMHPKMDEQLARTFVINEEEAEKHIQKVQNAFLYYGPYACQRLKRSMDYLNSLSGEDQIMLAKYRGHLECVRTCIDRNQAVIREILRGRVLYPTDEATGDPSEFDEPPPNVRHGDMDQIDIPFDEADVEPLKILKAQSTLKLIARDWSTEGALEREQSYKPIIDSIVAYFKHSDFELKDIKILVPGAGLGRLTYELACLGYSCEGNEFSYFMLIASNFVLNLCDNENKYVLYPWVHQYVNNLRREDQVAPVRFPDVCPLKNPPKGHFEIAAGDFLEVYKTPNAYNCVATCFFIDCANNVIDFIRTIYKILVPGGIWVNLGPLLYHFSDVSGQNSIEPAFEDLCIIMESVGFVIEKSRTGIRTKYAQNPSSMKQSEYQSLFWVCRKPDLFEEQRGKRKASREPHDLIVREDSEEEGEQQPERNETEEKQQLKPLATANCETEIKEQPS | –
4 | – | – | binds | – | binds | no binding | dSestrin, transiently expressed in HEK-293T cells (protein, UniProt Q9W1K5 1-497) MYYAVDYYADMGQISQDCFAATQTGASDFDMDELDDLDQVTQVIGYHPQFHDHFLATQNFIMKGDGPLPNDYRYYLAIIAAARHQCPYLVKRYEKEFINQGGDSAWLGGLDFIPAKLRAIYDINKILAHRPWLLRKEHIERLTKGKNSWSLSEVVHAMVLLSHFHSLSSFVFSCGLTQKLDGLSSPKLKSPPAAVAALAPTILITPTSPTEPQKGKPVLAEISLNNANPDYDSQTAASSNGGAPPDSANAVADGPDATTLNGYLATAQQLPQQHGISVETLMERMKVLSQKQDECSEAELSSRFQKVEQQTAELAAVTPEAAVGVPTNLSHYVDDANFIYQDFARRGTESINTFRIQDYSWEDHGYSLVDGLYNDVGIFLDAKFRAAYNLTYCTMGGIKNVDTSKFRRAIWNYIQCIYGIRHDDYDYGEVNQLLVRPLKMFIKTACCFPERITTKDYDSVLVELQDSEKVHVNLMIMEARNQAELLYALREIMRYMT | –
